Patent US9145351B2, “Azole derivatives, methods for producing the same, intermediate thereof, agro-horticultural agents” (KUREHA CORPORATION, priority 2009, dated 2015)
Like-named read-outs stand apart in the source and are kept apart here. Some entries share one result that the patent states for a list of compounds. Some compounds share one range, which may span the group rather than tell each member.

Key:
[1] = test system: Fusarium graminearum; type: in vivo; conditions: wheat head, four to 7 days after inoculation
[2] = test system: Cladosporium sp.; assay: Plate medium assay, industrial material deteriorating microorganism, Cladosporium (Experimental Example 5); type: cell-based; conditions: treatment at 50 mg/l, PDA plate medium
Experimental: (§1) In this Experimental Example, the fungicidal effects of the inventive compounds on various phytopathogenic fungi for plants and hazardous microorganism for industrial materials were examined by the methods described below. Each inventive compound was dissolved in 2 ml of dimethyl sulfoxide. 0.6 ml of this solution was added to 60 nil of a PDA medium (potato dextrose agar medium) at about 60 degrees C., which was mixed thoroughly in a 100-ml conical flask, and poured into a dish, where it was solidified, thereby obtaining a plate medium containing the inventive compound at 50 mg/L and 5 mg/L. On the other hand, a subject microorganism previously cultured on a plate medium was cut out using a cork borer whose diameter was 4 mm, and inoculated to the test compound-containing plate medium described above. […] The growth degree of the microorganism on the test compound-containing plate medium thus observed was compared with the growth degree of the microorganism in the untreated group, and % mycelial growth inhibition was calculated by the following equation. R=100(dc-dt)/dc wherein R=% mycelial extension inhibition, dc=flora diameter in untreated plate, dt=flora diameter in treated plate. The results obtained as described above were evaluated as one of the 5 grades according to the following criteria.

[3] = test system: Tyromyces palustris; assay: Plate medium assay, wood denaturing microorganism Oouzuratake (Experimental Example 5); type: cell-based; conditions: treatment at 50 mg/l, PDA plate medium
Experimental: as §1

[4] = test system: Penicillium sp.; assay: Plate medium assay, industrial material deteriorating microorganism, Penicillium (Experimental Example 5); type: cell-based; conditions: treatment at 50 mg/l, PDA plate medium
Experimental: as §1

[5] = test system: Botrytis cinerea; assay: Efficacy test against cucumber gray mold (Experimental Example 1); type: in vivo; conditions: four days after inoculation
Experimental: Onto a cucumber (variety:SHARP1) plant in its cotyledon phase grown using a square plastic pot (6 cm×6 cm), a wettable formulation such as Formulation Example 1 which was diluted and suspended in water at a certain concentrations (100 mg/L and 50 mg/L) was sprayed at a rate of 1,000 L/ha. The sprayed leaves were air-dried, and loaded with a paper disc (8 mm in diameter) soaked in a spore suspension of Botrytis cinerea, and kept at 20 degrees C. and a high humidity. Four days after inoculation, the cucumber gray mold lesion degree was investigated, and the protective value was calculated by the following equation. Protective value (%)=(1−mean lesion degree in sprayed plot/mean lesion degree in unsprayed plot)×100

[6] = test system: Curvularia sp.; assay: Plate medium assay, industrial material deteriorating microorganism, Curvularia (Experimental Example 5); type: cell-based; conditions: treatment at 50 mg/l, PDA plate medium
Experimental: as §1

[7] = test system: Trichoderma sp.; assay: Plate medium assay, industrial material deteriorating microorganism, Trichoderma (Experimental Example 5); type: cell-based; conditions: treatment at 50 mg/l, PDA plate medium
Experimental: as §1

[8] = test system: Coriolus versicolor; assay: Plate medium assay, wood denaturing microorganism Kawaratake (Experimental Example 5); type: cell-based; conditions: treatment at 50 mg/l, PDA plate medium
Experimental: as §1

[9] = test system: Aspergillus sp.; assay: Plate medium assay, industrial material deteriorating microorganism, Aspergillus (Experimental Example 5); type: cell-based; conditions: treatment at 50 mg/l, PDA plate medium
Experimental: as §1

[10] = test system: rice plant; assay: Rice elongation prevention assay (Experimental Example 6); type: in vivo; conditions: 36 mg test compound applied to 180 g of rice seeds, 20 days after seeding
[11] = test system: Puccinia recondita; assay: Efficacy test against wheat brown rust, 100 mg/L and 10 mg/L (Experimental Example 2); type: in vivo; conditions: 100 mg/L sprayed at 1,000 L/ha, nine to 14 days after inoculation
Experimental: Onto a wheat plant (variety: NORIN No. 61) grown to the two-leaf phase using a square plastic pot (6 cm×6 cm), a wettable formulation such as Formulation Example 1 which was diluted and suspended in water at a certain concentration (100 mg/L and 10 mg/L) was sprayed at a rate of 1,000 L/ha. The sprayed leaves were air-dried, and inoculated with spore suspension of Puccinia recondita (adjusted at 200 spores/vision, […] was added at 60 ppm) by spraying, and kept at 25 degrees C. and a high humidity for 48 hours. Thereafter, the plant was kept in a greenhouse. Nine to 14 days after inoculation, the wheat brown rust lesion degree was investigated, and the protective value was calculated by the following equation. Protective value (%)=(1-lesion degree in sprayed plot/lesion degree in unsprayed plot)×100

[12] = test system: Mucor sp.; assay: Plate medium assay, industrial material deteriorating microorganism, Mucor (Experimental Example 5); type: cell-based; conditions: treatment at 50 mg/l, PDA plate medium
Experimental: as §1

[13] = test system: Aureobasidium sp.; assay: Plate medium assay, industrial material deteriorating microorganism, Aureobasidium (Experimental Example 5); type: cell-based; conditions: treatment at 50 mg/l, PDA plate medium
Experimental: as §1

SMILES | Protective value ([1]; 100 mg/L sprayed at 1,000 L/ha) | Protective value ([1]; 500 mg/L sprayed at 1,000 L/ha) | growth inhibition grade [2] | growth inhibition grade [3] | growth inhibition grade [4] | Protective value ([5]; 50 mg/L sprayed at 1,000 L/ha) | Protective value ([5]; 100 mg/L sprayed at 1,000 L/ha) | growth inhibition grade [6] | growth inhibition grade [7] | growth inhibition grade [8] | growth inhibition grade [9] | growth regulation grade (% plant height suppression) [10] | Protective value [11] | growth inhibition grade [12] | growth inhibition grade [13]
C[C@]1(CCl)CC[C@@H](Cc2ccc(F)cc2F)[C@]1(O)Cn1cncn1 (relative stereo) [Compound I-88] | ≥ 80% | ≥ 90% | 4 (% Mycerial growth inhibition of less than 80 to 60% or higher) | 4 (% Mycerial growth inhibition of less than 80 to 60% or higher) | 4 (% Mycerial growth inhibition of less than 80 to 60% or higher) | ≥ 80% | ≥ 80% | 4 (% Mycerial growth inhibition of less than 80 to 60% or higher) | 4 (% Mycerial growth inhibition of less than 80 to 60% or higher) | 4 (% Mycerial growth inhibition of less than 80 to 60% or higher) | 4 (% Mycerial growth inhibition of less than 80 to 60% or higher) | 4 (% Plant height suppression of less than 50 to 30% or higher) | ≥ 90% | 4 (% Mycerial growth inhibition of less than 80 to 60% or higher) | 4 (% Mycerial growth inhibition of less than 80 to 60% or higher)
Cc1ccc(C[C@@H]2CC[C@](C)(CCl)[C@@]2(O)Cn2cncn2)cc1 (relative stereo) [Compound I-80] | ≥ 80% | ≥ 90% | 4 (% Mycerial growth inhibition of less than 80 to 60% or higher) | 4 (% Mycerial growth inhibition of less than 80 to 60% or higher) | 4 (% Mycerial growth inhibition of less than 80 to 60% or higher) | ≥ 80% | ≥ 80% | 4 (% Mycerial growth inhibition of less than 80 to 60% or higher) | 4 (% Mycerial growth inhibition of less than 80 to 60% or higher) | 4 (% Mycerial growth inhibition of less than 80 to 60% or higher) | 4 (% Mycerial growth inhibition of less than 80 to 60% or higher) | 4 (% Plant height suppression of less than 50 to 30% or higher) | ≥ 90% | 4 (% Mycerial growth inhibition of less than 80 to 60% or higher) | 4 (% Mycerial growth inhibition of less than 80 to 60% or higher)
CC[C@]1(CCl)CC[C@@H](Cc2ccccc2)[C@]1(O)Cn1cncn1 (relative stereo) [Compound I-97] | – | ≥ 90% | 4 (% Mycerial growth inhibition of less than 80 to 60% or higher) | 4 (% Mycerial growth inhibition of less than 80 to 60% or higher) | 4 (% Mycerial growth inhibition of less than 80 to 60% or higher) | ≥ 80% | ≥ 80% | 4 (% Mycerial growth inhibition of less than 80 to 60% or higher) | 4 (% Mycerial growth inhibition of less than 80 to 60% or higher) | 4 (% Mycerial growth inhibition of less than 80 to 60% or higher) | 4 (% Mycerial growth inhibition of less than 80 to 60% or higher) | 4 (% Plant height suppression of less than 50 to 30% or higher) | ≥ 90% | 4 (% Mycerial growth inhibition of less than 80 to 60% or higher) | 4 (% Mycerial growth inhibition of less than 80 to 60% or higher)
C[C@@]1(CCl)CC[C@@H](Cc2ccc(Cl)cc2)[C@]1(O)Cn1cncn1 (racemic) [Compound I-101] | ≥ 80% | ≥ 90% | 4 (% Mycerial growth inhibition of less than 80 to 60% or higher) | 4 (% Mycerial growth inhibition of less than 80 to 60% or higher) | 4 (% Mycerial growth inhibition of less than 80 to 60% or higher) | ≥ 80% | ≥ 80% | 4 (% Mycerial growth inhibition of less than 80 to 60% or higher) | 4 (% Mycerial growth inhibition of less than 80 to 60% or higher) | 4 (% Mycerial growth inhibition of less than 80 to 60% or higher) | 4 (% Mycerial growth inhibition of less than 80 to 60% or higher) | 4 (% Plant height suppression of less than 50 to 30% or higher) | ≥ 90% | 4 (% Mycerial growth inhibition of less than 80 to 60% or higher) | 4 (% Mycerial growth inhibition of less than 80 to 60% or higher)
C[C@]1(CCl)CC[C@@H](Cc2ccccc2F)[C@]1(O)Cn1cncn1 (relative stereo) [Compound I-86] | ≥ 80% | ≥ 90% | 4 (% Mycerial growth inhibition of less than 80 to 60% or higher) | 4 (% Mycerial growth inhibition of less than 80 to 60% or higher) | 4 (% Mycerial growth inhibition of less than 80 to 60% or higher) | ≥ 80% | ≥ 80% | 4 (% Mycerial growth inhibition of less than 80 to 60% or higher) | 4 (% Mycerial growth inhibition of less than 80 to 60% or higher) | 4 (% Mycerial growth inhibition of less than 80 to 60% or higher) | 4 (% Mycerial growth inhibition of less than 80 to 60% or higher) | 4 (% Plant height suppression of less than 50 to 30% or higher) | ≥ 90% | 4 (% Mycerial growth inhibition of less than 80 to 60% or higher) | 4 (% Mycerial growth inhibition of less than 80 to 60% or higher)
